Laboratory results taken from PubChem BioAssay AID2100 (National Center for Advancing Translational Sciences (NCATS), 2009).
Out of some 300,000 compounds screened, about 1,200 (0.4%) were called active. The shares of active, inactive and inconclusive entries below differ from those in the screen. The call rests on the fitted dose curve; in most records, active means well fitted inhibition curve with a large enough effect; inconclusive means small, poorly fitted or top-dose-only effect, or another doubt; inactive means no such curve, though single readings can be large or run the other way. A potency beside an inconclusive call is a rough fit, not a confirmed value.
Potency means the concentration at half of the fitted maximal effect.
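Wherever activity change, negative = inhibition is given: 0% = full enzyme reaction and -100% = no-enzyme basal signal.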

Each molecule was assayed against Lysosomal alpha-glucosidase (Homo sapiens) (UniProt P10253) (assay: qHTS Assay for Inhibitors and Activators of Human alpha-Glucosidase Cleavage of Glycogen). Settings: recombinant GAA, glycogen substrate, Amplex Red glucose oxidase fluorescence; activity change, negative = inhibition: at 76.4 µM (top of the series) unless noted.
Method in brief: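 Recombinant enzyme (4 nM final) with compounds titrated up to 77 uM and bovine liver glycogen (30 ug) in citrate pH 5.0, 0.01% Tween-20, 37 C 40 min. Released glucose detected by Amplex Red/glucose oxidase (Ex 573/Em 610); AC50 from Hill fits.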
`CCC(=Nc1ccccc1O)C1=C(O)CC(c2ccccc2)CC1=O` (configuration not stated) was tested, and the Potency was active: 12.6 µM.
For `COc1ccc(S(=O)(=O)Nc2cc3c(cc2NCc2ccccc2)n(C)c(=O)n3C)cc1OC`, the Potency was inconclusive: 31.6 µM [inhibitor, partial curve].
For `O=C(CNC(=O)c1sc2ccccc2c1Cl)NCc1cccnc1`, the Potency was inconclusive: 35.5 µM [inhibitor, single point].
With `CCCCN1C(=O)C2(NNc3ccccc3O2)c2ccccc21` (configuration not stated) the Potency was inconclusive: 28.2 µM [inhibitor, single point].
For `CN(C)N1C(=O)CC(NNC(=O)c2ccncc2)C1=O` (configuration not stated), the Potency was inconclusive: 6.31 µM [inhibitor, full curve].
With `CC(=O)c1ccc(NC(=O)NNS(=O)(=O)c2ccc([N+](=O)[O-])cc2)cc1` the Potency was inconclusive: 31.6 µM [inhibitor, partial curve].
In the case of `Cc1ccc2oc(=O)c(/C=C(\O)C(C)(C)C)nc2c1`, the Potency is reported as active: 6.31 µM.
`CCCCNC(=S)NNC(=O)c1csc(C)c1CC` was tested, and the Potency was inconclusive: 10 µM [inhibitor, partial curve].
In the case of `CCOc1ccc(NC(=S)N(CCc2c(C)[nH]c3ccc(C)cc23)Cc2ccco2)cc1`, the Potency is reported as active: 35.5 µM.
With `Cc1ccccc1Nc1c(-c2ccc(N3CCOCC3)cc2)nc2ncccn12` the Potency was inconclusive: 3.52 µM [inhibitor, partial curve].
`CCOC(=O)c1c(N)sc(N)c1C(=O)OCC` was tested, and the Potency was inconclusive: 39.8 µM [inhibitor, single point].
For `CCCNC(=O)c1cc(-c2ccco2)on1`, the Potency was inconclusive: 100 µM [inhibitor, partial curve].
In the case of `COc1ccc(N/N=C(/C(C)=O)N2CCCc3ccccc32)cc1`, the Potency is reported as inconclusive: 31.6 µM [inhibitor, single point].
With `COc1ccccc1Nc1nc(NCc2ccco2)nc(N)c1[N+](=O)[O-]` the Potency was inconclusive: 11.2 µM [inhibitor, single point].
`CCOC(=O)C(CC)/C(C)=N\NC(=O)c1ccccc1O` (configuration not stated) was tested, and the Potency was inconclusive: 17.8 µM [inhibitor, partial curve].
For `COC(=O)C(N)Cc1ccc(O)cc1` (configuration not stated), the “activity change, negative = inhibition” value was inactive: 4.82%.
For `CCOC(=O)c1c(C)[nH]sc1=S`, the Potency was inconclusive: 35.5 µM [inhibitor, single point].
For `CC(C)COCC(O)CCC(=O)NNC(=S)Nc1ccccc1` (configuration not stated), the Potency was inconclusive: 31.6 µM [inhibitor, single point].
For `O=C(NNc1ccccc1C(F)(F)F)c1sccc1Br`, the Potency was inconclusive: 50.1 µM [inhibitor, single point].
In the case of `COc1ccc(C2Nc3cccc4cccc(c34)N2)cc1`, the Potency is reported as inconclusive: 3.14 µM [inhibitor, full curve].
With `NNC(=O)c1cccc(COc2ccc3c(c2)CCC3)c1` the Potency was inconclusive: 35.5 µM [inhibitor, single point].
In the case of `CCC1=NC(c2ccc(OC)cc2OC)N(O)C1(C)C` (configuration not stated), the Potency is reported as inconclusive: 22.2 µM [inhibitor, partial curve].
For `CC(=O)C(C(C)=O)c1c(Cl)c(O)c(O)c2c(C(=O)c3ccccc3)coc12`, the Potency was inconclusive: 28.2 µM [inhibitor, single point].
With `O=C1Nc2ccc(S(=O)(=O)Nc3ccccc3O)c3cccc1c23` the Potency was inconclusive: 4.47 µM [inhibitor, full curve].
With `CN(C)c1ccc(N/C=C/C(=O)c2ccccc2)cc1` the Potency was active: 14.1 µM.
In the case of `CCN(C(=O)COC(=O)c1ccc(S(=O)(=O)N2CCCc3ccccc32)cc1)C1CCS(=O)(=O)C1` (configuration not stated), the Potency is reported as inconclusive: 44.7 µM [inhibitor, partial curve].
With `Oc1c(Cl)cc(Cl)cc1C=Nc1ccc2c(c1)OCCO2` the Potency was inconclusive: 22.2 µM [inhibitor, single point].
With `c1ccc(CNc2ccc3c(c2)ncn3C2CCCCC2)nc1` the Potency was inconclusive: 20 µM [inhibitor, partial curve].
For `CC1CN(S(=O)(=O)c2cccc(-c3cn4ccccc4n3)c2)CC(C)O1` (configuration not stated), the Potency was inconclusive: 28.2 µM [inhibitor, partial curve].
`NC(=O)Cc1c[nH]c2cccc(O)c12` was tested, and the Potency was active: 10 µM.
In the case of `CCC(c1nnnn1C(C)(C)CC)N(CCCN1CCOCC1)Cc1cc2cccc(C)c2[nH]c1=O` (configuration not stated), the Potency is reported as inconclusive: 35.5 µM [activator, single point].
In the case of `OCCNc1nc(Nc2ccc(O)cc2)nc2ccccc12`, the Potency is reported as inconclusive: 10 µM [inhibitor, full curve].
For `Cc1nc2cc(NCc3cc([N+](=O)[O-])ccc3O)ccc2n1Cc1ccccc1`, the Potency was inconclusive: 39.5 µM [activator, single point].
With `Cc1ccccc1NS(=O)(=O)c1nnc(NC(=O)c2ccccc2C)s1` the Potency was inconclusive: 10 µM [inhibitor, single point].
With `O=C(NCc1cccc(Cl)c1)C(=O)Nc1ccc2nc3n(c(=O)c2c1)CCCCC3` the Potency was inconclusive: 11.2 µM [inhibitor, single point].
In the case of `O=C(N/N=C/C1CC2C=CC1C2)c1ccccc1O` (configuration not stated), the Potency is reported as inconclusive: 5.01 µM [inhibitor, full curve].
`Cc1ccccc1N1CCN(S(=O)(=O)c2nnc(NC(=O)c3ccco3)s2)CC1` was tested, and the “activity change, negative = inhibition” value was inactive: 0.186% [at 76.3 µM].
For `C=CCOC(=O)C1=C(C)OC(N)=C(C#N)C1c1ccc2c(c1)OCO2` (configuration not stated), the Potency was inconclusive: 31.4 µM [inhibitor, partial curve].
With `C[C@@]12C(=O)N(CC3CC3)CC(=O)N1[C@H](/C=C/c1ccccc1)[C@@H]1C(=O)N(c3ccccc3)C(=O)[C@@H]12` the Potency was inconclusive: 7.08 µM [inhibitor, partial curve].
With `Cc1nc(C)c(C(=O)NNS(=O)(=O)c2ccc3ccccc3c2)s1` the Potency was inconclusive: 25.1 µM [inhibitor, partial curve].
`Cc1nc2nc(NCc3ccc(Cl)cc3)[nH]n2c(=O)c1Cc1ccccc1` was tested, and the “activity change, negative = inhibition” value was inactive: 13.3% [at 76.3 µM].
`S=c1[nH]c2ccc(Cl)cc2s1` was tested, and the Potency was inconclusive: 50.1 µM [inhibitor, single point].
With `Cc1cccc(NC(=O)CSCC(=O)Nc2ccccc2N2CCCC2)c1` the Potency was inconclusive: 20 µM [inhibitor, partial curve].
With `Cc1ccc(OCc2ccc(-c3nc(C#N)c(NCc4cccnc4)o3)o2)cc1` the Potency was inconclusive: 39.8 µM [inhibitor, partial curve].
`CCOc1ccc(CNC(=O)Cn2cc3c(n2)-c2c(oc(C(=O)N4CCOCC4)c2C)CC3)cc1` was tested, and the “activity change, negative = inhibition” value was inactive: 7.62% [at 76.3 µM].
In the case of `CC(=O)Nc1ccc(S(=O)(=O)N2CCN(C(=O)c3ncoc3-c3ccccc3F)CC2)cc1`, the Potency is reported as inconclusive: 28.2 µM [inhibitor, single point].
With `CCC(=Nc1ccc(N)cc1)C1=C(O)C(C(=O)OC)C(C)(C)CC1=O` (configuration not stated) the Potency was inconclusive: 39.8 µM [inhibitor, partial curve].
`COc1ccccc1N1CCN(S(=O)(=O)c2c(C)sc3ncn(CC(=O)N(C)c4ccc(Cl)cc4)c(=O)c23)CC1` was tested, and the “activity change, negative = inhibition” value was inactive: -3.48% [at 76.3 µM].
`CCOc1cc(/C=N/NC(N)=S)cc(Br)c1OCc1ccccc1C` was tested, and the Potency was inconclusive: 39.5 µM [inhibitor, partial curve].
With `CCOc1cccc(CN2CCN(Cc3ccc(C)o3)C(CCO)C2)c1O` (configuration not stated) the Potency was inconclusive: 9.92 µM [inhibitor, full curve, poor fit].
In the case of `Cc1ccc(Nc2c(-c3ccccc3)nc3cnccn23)cc1`, the Potency is reported as inconclusive: 3.98 µM [inhibitor, full curve].
In the case of `CN(C)c1ccc(CNC(=O)C2CCC(CNc3c(N4CCCCC4)c(=O)c3=O)CC2)cc1` (configuration not stated), the Potency is reported as inconclusive: 20 µM [inhibitor, partial curve].
With `O=S(=O)(NC(=S)NC1CCCCC1)c1ccc(Cl)cc1` the Potency was inconclusive: 31.6 µM [inhibitor, single point].
In the case of `CC1=NN(c2nc(C)cc(C)n2)C(=O)C1CCC(C)C` (configuration not stated), the Potency is reported as inconclusive: 39.8 µM [inhibitor, single point].
For `O=C1c2ccccc2NC(c2cccc(O)c2)N1O` (configuration not stated), the Potency was inconclusive: 39.5 µM [inhibitor, single point].
With `CCn1c(C)nc2cc(C(=O)NNS(=O)(=O)c3ccc(C)cc3C)ccc21` the Potency was inconclusive: 11.1 µM [inhibitor, partial curve].
`COCCNC(=S)NN=C1CCC(c2ccccc2)CC1` (configuration not stated) was tested, and the Potency was inconclusive: 50.1 µM [inhibitor, single point].
For `COCCNc1oc(/C=C/c2ccc(F)cc2)nc1C#N`, the Potency was inconclusive: 28.2 µM [inhibitor, partial curve].
In the case of `O=C(Cc1cn2ccsc2n1)Nc1nc2c(s1)CN(Cc1ccccc1)CC2`, the Potency is reported as inconclusive: 39.8 µM [activator, single point].
`COc1ccc(OCC(=O)NNc2c3ccccc3nc3ccccc23)cc1` was tested, and the Potency was inconclusive: 12.6 µM [inhibitor, partial curve].
With `Cc1ccc(OCc2ccc(-c3nc(C#N)c(NCc4ccccc4Cl)o3)o2)cc1` the Potency was inconclusive: 2.51 µM [inhibitor, partial curve].
`Cc1ccc2cc(CN(C(=O)c3cccc(Cl)c3)c3ccccc3)c(=O)[nH]c2c1` was tested, and the “activity change, negative = inhibition” value was inactive: 13% [at 76.3 µM].
In the case of `CCN1CC(CN(C)Cc2cn(-c3cccc(C)c3)nc2-c2cccc(F)c2)CC1=O` (configuration not stated), the Potency is reported as inconclusive: 39.8 µM [inhibitor, partial curve].
In the case of `COc1ccc(C2CC(=O)OC3=C2C(=O)CC(C)(C)C3)c(OC)c1` (configuration not stated), the Potency is reported as inconclusive: 17.8 µM [inhibitor, partial curve].
In the case of `Cc1ccc(N/C=C/C(=O)C(C)(C)C)c(O)c1`, the Potency is reported as active: 39.5 µM.
`COc1ccc2nc(C)cc(Nc3ccc(Cl)c(Cl)c3)c2c1` was tested, and the “activity change, negative = inhibition” value was inactive: -0.824% [at 76.3 µM].
In the case of `CC(C)(C)NC(=O)C(c1ccccn1)N(C(=O)c1csnn1)C1CCCC1` (configuration not stated), the Potency is reported as inconclusive: 25.1 µM [inhibitor, partial curve].
